Among the data in PubChem BioAssay (NCI) are TGI and GI50 values, retold here.

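Five compound concentrations were applied to cells in 96-well plates for 48 hours; endpoints were derived by simple linear interpolation of the resulting dose-response curve. GI50: concentration for 50% inhibition of growth.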 Not every entry of the source has a single result; some have several. This is not the full list of results. There may be further records. The records of an entry repeat one measurement across runs, samples, wells, individuals or studies. A tag in brackets gives the origin of a value. A, B and so on number the origins entry by entry.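 TGI: total growth inhibition.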

Some test systems named below: MOLT-4 leukemia; K-562 leukemia; TK-10 renal; A549 NSCLC.
Assay in all cases: growth of human tumour cells (NCI), 48 h

In the case of `COc1cc2c(c(OC)n1)[C@]1(O)[C@H](O)[C@H](CN(C)C)[C@@H](c3ccccc3)[C@]1(c1ccc(C#N)cc1)O2`, the TGI is > 43.5 µM [sample A, mean of 2 tests] and 2.09 µM [sample B, mean of 2 tests] in the experiment with MOLT-4 leukemia; > 41 µM [sample A, mean of 2 tests] and 2.43 µM [sample B, mean of 2 tests] in the experiment on K-562 leukemia.

For `CC(C)N=c1cc2n(-c3ccc(Cl)cc3)c3ccccc3nc-2cc1Nc1ccc(Cl)cc1`, the GI50 in the experiment on TK-10 renal is 2.88 µM [sample A, 1 test] and > 50 µM [sample B, 1 test]. The TGI in the experiment on A549 NSCLC is 3.71 µM [sample A, 1 test] and > 50 µM [sample B, 1 test].
